Laboratory results reported in PMC4207660, “Identification and Characterization of Hundreds of Potent and Selective Inhibitors of Trypanosoma brucei Growth from a Kinase-Targeted Library Screening Campaign” (PLoS Neglected Tropical Diseases, 2014).

Experiments:
[1] = test system: T. b. gambiense (strain Eliane MHOM/CI/52/ITMAP 2188); experiment: Potency assessment in vitro against T. b. gambiense (AlamarBlue, 72 h); assay type: cell-based; settings: Trypanosoma brucei
[2] = test system: T. b. rhodesiense (EATRO3 ETat1.2 TREU164); experiment: In vivo efficacy, mouse bloodstream infection with T. b. rhodesiense; settings: for Parasitemia counts (parasites/mL): one value per mouse

**Q.** How did the EC50 ([1]; 72 h, AlamarBlue, read-out: T. b. gambiense EC50) turn out when `OCCn1c(CNCCCNc2nc3ccccc3[nH]2)cc2c(Cl)cc(Cl)cc21` [NEU-0001053] was run?
**A.** The EC50 was 0.152 ± 0.013 nM.

**Q.** And the EC50 ([1]; see Table S6, read-out: T. b. gambiense pEC50 (converted))?
**A.** The EC50 was 0.2 nM.

**Q.** And the “Parasitemia counts (parasites/mL)” value ([2]; T. b. rhodesiense infected mice, 20 mg/Kg/day, day 5 (treatment day))?
**A.** The value was “N.D. (Not Detected (< 500 parasites/ml blood))”.

**Q.** What about the “Parasitemia counts (parasites/mL)” value ([2]; T. b. rhodesiense infected mice, 20 mg/Kg/day, day 6 (treatment day)) of the same molecule?
**A.** The value was “N.D. (Not Detected (< 500 parasites/ml blood))”.

**Q.** What about the “Parasitemia counts (parasites/mL)” value ([2]; T. b. rhodesiense infected mice, 20 mg/Kg/day, day 10) of the same molecule?
**A.** Its value is “N.D. (Not Detected (< 500 parasites/ml blood))”.

**Q.** And the “Parasitemia counts (parasites/mL)” value ([2]; T. b. rhodesiense infected mice, 20 mg/Kg/day, day 12 (treatment day))?
**A.** The value was “N.D. (Not Detected (< 500 parasites/ml blood))”.

**Q.** And the “Parasitemia counts (parasites/mL)” value ([2]; T. b. rhodesiense infected mice, 20 mg/Kg/day, day 13 (treatment day))?
**A.** The value was “N.D. (Not Detected (< 500 parasites/ml blood))”.

**Q.** And the “Parasitemia counts (parasites/mL)” value ([2]; T. b. rhodesiense infected mice, 20 mg/Kg/day, day 14 (treatment day))?
**A.** The value was “N.D. (Not Detected (< 500 parasites/ml blood))”.

**Q.** What about the “Parasitemia counts (parasites/mL)” value ([2]; T. b. rhodesiense infected mice, 20 mg/Kg/day, day 17) of the same molecule?
**A.** The value was “N.D. (Not Detected (< 500 parasites/ml blood))”.

**Q.** What about the “Parasitemia counts (parasites/mL)” value ([2]; T. b. rhodesiense infected mice, 20 mg/Kg/day, day 18) of the same molecule?
**A.** The value was “N.D. (Not Detected (< 500 parasites/ml blood))”.

**Q.** What about the “Parasitemia counts (parasites/mL)” value ([2]; T. b. rhodesiense infected mice, 20 mg/Kg/day, day 19) of the same molecule?
**A.** Its value is “N.D. (Not Detected (< 500 parasites/ml blood))”.

**Q.** And the “Parasitemia counts (parasites/mL)” value ([2]; T. b. rhodesiense infected mice, 20 mg/Kg/day, day 20)?
**A.** Its value is “N.D. (Not Detected (< 500 parasites/ml blood))”.

**Q.** What about the “Parasitemia counts (parasites/mL)” value ([2]; T. b. rhodesiense infected mice, 20 mg/Kg/day, day 21) of the same molecule?
**A.** Its value is “N.D. (Not Detected (< 500 parasites/ml blood))”.

**Q.** What about the “Parasitemia counts (parasites/mL)” value ([2]; T. b. rhodesiense infected mice, 20 mg/Kg/day, day 52) of the same molecule?
**A.** The value was “N.D. (Not Detected (< 500 parasites/ml blood))”.

**Q.** What about the “Survival status of mouse” value ([2]; T. b. rhodesiense infected mice, 20 mg/Kg/day, day 90, per mouse) of the same molecule?
**A.** The value was “Alive”.

**Q.** What about the “outcome of murine bloodstream infection” value ([2]; T. brucei rhodesiense) of the same molecule?
**A.** The value was “parasitological cure”.

Read-outs that look alike come from different tables or passages of the source.
